Assay results: paper PMC10946956
No constants are given. Whether binding was seen depends on the method and setting. Binding seen in cells or lysates may run through a third protein. Some binding calls cover weakened binding; strength is not graded here. For some of these results: Sequences can lack the tags named with a protein.

By UniProt entry, the sequences of proteins in these tests, tags left out. Residues count along the entry.
UniProt O60603: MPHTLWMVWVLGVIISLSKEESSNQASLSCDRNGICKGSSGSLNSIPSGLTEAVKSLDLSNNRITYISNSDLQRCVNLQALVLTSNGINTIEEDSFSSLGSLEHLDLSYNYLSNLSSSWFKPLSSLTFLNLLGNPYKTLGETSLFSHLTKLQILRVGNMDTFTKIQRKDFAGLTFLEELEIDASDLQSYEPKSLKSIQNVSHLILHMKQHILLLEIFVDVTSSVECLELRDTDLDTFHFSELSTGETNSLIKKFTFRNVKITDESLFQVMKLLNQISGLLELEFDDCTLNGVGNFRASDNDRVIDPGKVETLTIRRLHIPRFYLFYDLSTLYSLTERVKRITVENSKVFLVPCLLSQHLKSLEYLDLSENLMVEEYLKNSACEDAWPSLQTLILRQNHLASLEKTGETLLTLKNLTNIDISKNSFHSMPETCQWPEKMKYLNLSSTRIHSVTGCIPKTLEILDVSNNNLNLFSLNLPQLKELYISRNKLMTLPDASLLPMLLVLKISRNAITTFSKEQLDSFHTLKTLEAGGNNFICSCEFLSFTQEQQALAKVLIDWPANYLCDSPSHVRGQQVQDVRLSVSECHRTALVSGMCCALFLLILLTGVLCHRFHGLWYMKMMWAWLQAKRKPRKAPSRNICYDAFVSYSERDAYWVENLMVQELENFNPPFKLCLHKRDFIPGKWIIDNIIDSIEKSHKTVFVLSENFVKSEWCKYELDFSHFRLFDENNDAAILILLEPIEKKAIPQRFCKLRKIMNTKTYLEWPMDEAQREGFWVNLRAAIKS
UniProt O15455, residues 24-904: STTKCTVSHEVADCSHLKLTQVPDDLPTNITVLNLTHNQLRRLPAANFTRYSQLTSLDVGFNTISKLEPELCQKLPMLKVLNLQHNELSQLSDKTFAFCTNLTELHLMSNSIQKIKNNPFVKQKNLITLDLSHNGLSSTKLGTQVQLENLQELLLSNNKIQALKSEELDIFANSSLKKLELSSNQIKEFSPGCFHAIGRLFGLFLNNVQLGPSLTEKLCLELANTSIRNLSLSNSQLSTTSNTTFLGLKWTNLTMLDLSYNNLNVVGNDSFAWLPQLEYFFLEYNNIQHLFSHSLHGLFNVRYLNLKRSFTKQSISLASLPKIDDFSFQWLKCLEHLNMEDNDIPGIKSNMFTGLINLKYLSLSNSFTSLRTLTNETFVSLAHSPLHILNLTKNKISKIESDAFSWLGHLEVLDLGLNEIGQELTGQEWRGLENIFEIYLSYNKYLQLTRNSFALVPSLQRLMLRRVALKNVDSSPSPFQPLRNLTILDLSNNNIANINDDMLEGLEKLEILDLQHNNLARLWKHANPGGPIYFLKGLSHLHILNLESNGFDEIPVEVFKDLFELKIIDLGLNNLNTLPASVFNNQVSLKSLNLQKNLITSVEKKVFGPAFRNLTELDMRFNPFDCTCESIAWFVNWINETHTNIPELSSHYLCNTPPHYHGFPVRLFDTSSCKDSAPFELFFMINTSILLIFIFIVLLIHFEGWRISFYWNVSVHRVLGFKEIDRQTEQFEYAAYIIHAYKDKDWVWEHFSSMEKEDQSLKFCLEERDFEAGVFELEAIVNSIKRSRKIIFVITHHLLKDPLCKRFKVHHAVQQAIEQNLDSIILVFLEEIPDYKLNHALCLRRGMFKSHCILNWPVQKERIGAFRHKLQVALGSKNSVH
UniProt O00206, residues 24-839: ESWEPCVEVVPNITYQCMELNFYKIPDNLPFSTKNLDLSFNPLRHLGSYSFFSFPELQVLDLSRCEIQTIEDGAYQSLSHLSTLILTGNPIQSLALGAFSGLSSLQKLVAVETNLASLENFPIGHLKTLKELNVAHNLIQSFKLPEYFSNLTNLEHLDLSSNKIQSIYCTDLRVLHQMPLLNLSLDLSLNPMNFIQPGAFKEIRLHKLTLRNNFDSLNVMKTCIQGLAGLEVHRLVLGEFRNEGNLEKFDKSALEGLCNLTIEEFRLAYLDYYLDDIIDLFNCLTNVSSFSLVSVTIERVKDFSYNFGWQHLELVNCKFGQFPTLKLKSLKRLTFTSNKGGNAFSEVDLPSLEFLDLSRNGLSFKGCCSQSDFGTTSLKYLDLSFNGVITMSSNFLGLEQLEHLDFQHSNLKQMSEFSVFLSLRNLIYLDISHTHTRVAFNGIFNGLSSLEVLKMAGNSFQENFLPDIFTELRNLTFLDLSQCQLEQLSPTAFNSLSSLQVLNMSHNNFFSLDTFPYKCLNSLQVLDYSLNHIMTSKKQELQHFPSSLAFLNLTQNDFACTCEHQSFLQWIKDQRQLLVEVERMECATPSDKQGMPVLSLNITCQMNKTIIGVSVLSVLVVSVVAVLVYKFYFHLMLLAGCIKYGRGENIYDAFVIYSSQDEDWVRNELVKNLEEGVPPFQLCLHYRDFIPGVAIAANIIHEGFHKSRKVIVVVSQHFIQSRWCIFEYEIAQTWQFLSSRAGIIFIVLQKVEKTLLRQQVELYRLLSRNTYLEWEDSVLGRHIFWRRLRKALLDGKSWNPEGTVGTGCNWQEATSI
UniProt O60602, residues 21-858: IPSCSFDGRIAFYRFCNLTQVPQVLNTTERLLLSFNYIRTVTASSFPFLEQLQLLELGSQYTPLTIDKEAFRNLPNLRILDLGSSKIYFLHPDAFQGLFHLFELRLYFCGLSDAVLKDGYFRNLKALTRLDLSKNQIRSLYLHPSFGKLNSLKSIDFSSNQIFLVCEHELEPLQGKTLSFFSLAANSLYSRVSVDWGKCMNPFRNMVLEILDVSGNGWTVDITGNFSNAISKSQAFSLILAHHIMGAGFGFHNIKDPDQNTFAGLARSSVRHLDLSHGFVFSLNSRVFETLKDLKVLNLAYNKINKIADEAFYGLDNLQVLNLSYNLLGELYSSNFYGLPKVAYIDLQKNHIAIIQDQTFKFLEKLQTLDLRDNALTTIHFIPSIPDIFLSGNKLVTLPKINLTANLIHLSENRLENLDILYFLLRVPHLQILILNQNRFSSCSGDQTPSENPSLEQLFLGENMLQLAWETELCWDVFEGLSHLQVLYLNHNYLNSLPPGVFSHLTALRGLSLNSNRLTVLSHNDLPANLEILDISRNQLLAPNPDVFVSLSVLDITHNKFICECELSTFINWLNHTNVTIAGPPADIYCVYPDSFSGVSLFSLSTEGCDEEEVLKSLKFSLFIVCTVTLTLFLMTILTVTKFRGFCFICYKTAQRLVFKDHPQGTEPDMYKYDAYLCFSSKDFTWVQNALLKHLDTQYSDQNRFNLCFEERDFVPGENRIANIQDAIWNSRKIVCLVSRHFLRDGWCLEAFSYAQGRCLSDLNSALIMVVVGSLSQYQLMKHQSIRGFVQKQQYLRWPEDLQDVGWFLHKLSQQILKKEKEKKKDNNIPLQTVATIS
UniProt Q15363, residues 21-201: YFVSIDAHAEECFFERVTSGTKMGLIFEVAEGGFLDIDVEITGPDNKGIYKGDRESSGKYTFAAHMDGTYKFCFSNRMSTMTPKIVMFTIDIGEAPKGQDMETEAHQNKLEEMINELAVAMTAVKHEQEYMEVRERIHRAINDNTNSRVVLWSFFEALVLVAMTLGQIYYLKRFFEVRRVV

How the values were obtained:
[1] = molecular target: Flag-TLR2 (UniProt O60603); assay: co-IP; HEK293T cells transiently co-transfected, lysed 48 h later; supernatant incubated with M2 anti-FLAG beads overnight at 4°C, washed three times with TBS; western blot
[2] = molecular target: Flag-TLR3 (UniProt O15455); assay: as above
[3] = molecular target: Flag-TLR4 (UniProt O00206); assay: as above
[4] = molecular target: Flag-TLR2 (UniProt O60603); assay: proximity ligation; HEK293T cells transiently co-transfected, fixed 48 h later (4% paraformaldehyde, acetone), Duolink In Situ Red Mouse/Rabbit kit with mouse anti-HA and rabbit anti-FLAG, confocal microscopy
[5] = molecular target: Flag-TLR3 (UniProt O15455); assay: as above
[6] = molecular target: Flag-TLR4 (UniProt O00206); assay: as above
[7] = molecular target: Flag-TLR2 (UniProt O60603); assay: as above; remark: listed apart in the source
[8] = molecular target: Flag-TLR3 (UniProt O15455); assay: as above; remark: listed apart in the source
[9] = molecular target: Flag-TLR4 (UniProt O00206); assay: as above; remark: listed apart in the source
[10] = molecular target: Flag-TLR5 (UniProt O60602); assay: as above

## TMED2-HA (from UniProt Q15363 21-201)
[1]
  binding: binds
[2]
  binding: binds
[3]
  binding: binds
[4]
  binding: binds
[5]
  binding: binds
[6]
  binding: binds

B1: TMED7-HA (protein, UniProt Q9Y3B3 35-224)
chain: SEITFELPDNAKQCFYEDIAQGTKCTLEFQVITGGHYDVDCRLEDPDGKVLYKEMKKQYDSFTFTASKNGTYKFCFSNEFSTFTHKTVYFDFQVGEDPPLFPSENRVSALTQMESACVSIHEALKSVIDYQTHFRLREAQGRSRAEDLNTRVAYWSVGEALILLVVSIGQVFLLKSFFSDKRTTTTRVGS
[1]
  binding: binds
[2]
  binding: no binding
[3]
  binding: binds
[7]
  binding: binds
[8]
  binding: no binding
[9]
  binding: binds
[10]
  binding: binds
